In patent US20230087128A1 (KEROS THERAPEUTICS, published 2023):

What was measured:
Test in all cases: SPR (Biacore 3000), Fc fusion captured, ligand in solution
[1] = biological target: T1, growth differentiation factor 11 (GDF11) (UniProt O95390 299-407)
T1 sequence (looked up): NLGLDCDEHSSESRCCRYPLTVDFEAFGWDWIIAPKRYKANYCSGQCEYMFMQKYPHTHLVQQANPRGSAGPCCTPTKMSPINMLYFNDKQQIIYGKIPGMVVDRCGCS
Source text: (§1) The GE Biacore 3000 was used to measure the kinetics of the interactions between the ActRIIB-Fc variants and the ligands Activin A, Activin B, growth differentiation factor 11 (GDF11), and BMP-9. […] All other ActRIIB-Fc variants were expressed by transient expression in HEK293 cells and purified from the conditioned media using Protein-A Sepharose chromatography. Flow cells 1-4 were immobilized with anti-human/anti-mouse capture antibodies from GE using the amine coupling kit. The ActRII-Fc proteins were then captured on the chip in flow cells 2-4, with flow cell 1 being left empty as a reference cell to measure and subtract any nonspecific binding. HBS-EP+ buffer from GE Healthcare™ was used as a running buffer. Each ligand was run in a duplicate concentration series at 40 μl/min to avoid mass transport effects. All data was collected on a CM-5 chip except for GDF-11, which used CM-4. The data was analyzed using Scrubber2 by BioLogic™ Software to calculate the KD of each interaction (Table 4).

BMP-9 = biological target: T2, BMP-9 (UniProt Q9UK05 320-429)
T2 construct: also called bone morphogenetic protein 9
T2 sequence (looked up): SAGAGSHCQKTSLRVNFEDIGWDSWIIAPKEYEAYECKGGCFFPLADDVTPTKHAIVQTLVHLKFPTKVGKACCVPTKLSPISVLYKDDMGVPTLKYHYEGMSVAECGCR
Source text: as §1

Activin B = biological target: T3, Activin B (UniProt P09529 293-407)
T3 sequence (looked up): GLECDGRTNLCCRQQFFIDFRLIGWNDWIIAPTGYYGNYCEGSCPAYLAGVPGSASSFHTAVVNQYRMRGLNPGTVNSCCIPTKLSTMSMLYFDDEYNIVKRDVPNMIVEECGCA
Source text: as §1

Activin A = biological target: T4, Activin A (UniProt P08476 311-426)
T4 sequence (looked up): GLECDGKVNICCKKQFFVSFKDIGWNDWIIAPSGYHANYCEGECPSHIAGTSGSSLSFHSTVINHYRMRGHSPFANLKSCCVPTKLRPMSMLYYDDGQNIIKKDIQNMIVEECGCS
Source text: as §1

B1: ActRIIA (SEQ ID NO: 16)-Fc (Fc fusion, not shown: a dimerising Fc or GST)
chain: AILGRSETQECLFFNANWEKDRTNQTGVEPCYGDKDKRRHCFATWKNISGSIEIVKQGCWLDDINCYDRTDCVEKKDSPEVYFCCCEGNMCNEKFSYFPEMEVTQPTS
notes: Recombinant ActRII-Fc protein captured by anti-human/anti-mouse antibodies; also called ActRIIA-Fc
Kd [1]: 0.081 nM
Kd (BMP-9): 25 nM
Kd (Activin B): 0.37 nM
Kd (Activin A): 1 nM
